# Measured values published in article PMC4336329 (PLoS ONE, 2015).
# Screen size: about 310,000 compounds; about 2,200 (0.71%) showed an effect of 50% or more. Effects have a minus sign here. The list shows a part of the results.
# Target: human ether-à-go-go-related gene (hERG) potassium channel (human, UniProt Q12809)
# Experiment: primary screen, population patch clamp on CHO cells stably expressing hERG
# Chain of human ether-à-go-go-related gene (hERG) potassium channel (Q12809 whole entry, looked up): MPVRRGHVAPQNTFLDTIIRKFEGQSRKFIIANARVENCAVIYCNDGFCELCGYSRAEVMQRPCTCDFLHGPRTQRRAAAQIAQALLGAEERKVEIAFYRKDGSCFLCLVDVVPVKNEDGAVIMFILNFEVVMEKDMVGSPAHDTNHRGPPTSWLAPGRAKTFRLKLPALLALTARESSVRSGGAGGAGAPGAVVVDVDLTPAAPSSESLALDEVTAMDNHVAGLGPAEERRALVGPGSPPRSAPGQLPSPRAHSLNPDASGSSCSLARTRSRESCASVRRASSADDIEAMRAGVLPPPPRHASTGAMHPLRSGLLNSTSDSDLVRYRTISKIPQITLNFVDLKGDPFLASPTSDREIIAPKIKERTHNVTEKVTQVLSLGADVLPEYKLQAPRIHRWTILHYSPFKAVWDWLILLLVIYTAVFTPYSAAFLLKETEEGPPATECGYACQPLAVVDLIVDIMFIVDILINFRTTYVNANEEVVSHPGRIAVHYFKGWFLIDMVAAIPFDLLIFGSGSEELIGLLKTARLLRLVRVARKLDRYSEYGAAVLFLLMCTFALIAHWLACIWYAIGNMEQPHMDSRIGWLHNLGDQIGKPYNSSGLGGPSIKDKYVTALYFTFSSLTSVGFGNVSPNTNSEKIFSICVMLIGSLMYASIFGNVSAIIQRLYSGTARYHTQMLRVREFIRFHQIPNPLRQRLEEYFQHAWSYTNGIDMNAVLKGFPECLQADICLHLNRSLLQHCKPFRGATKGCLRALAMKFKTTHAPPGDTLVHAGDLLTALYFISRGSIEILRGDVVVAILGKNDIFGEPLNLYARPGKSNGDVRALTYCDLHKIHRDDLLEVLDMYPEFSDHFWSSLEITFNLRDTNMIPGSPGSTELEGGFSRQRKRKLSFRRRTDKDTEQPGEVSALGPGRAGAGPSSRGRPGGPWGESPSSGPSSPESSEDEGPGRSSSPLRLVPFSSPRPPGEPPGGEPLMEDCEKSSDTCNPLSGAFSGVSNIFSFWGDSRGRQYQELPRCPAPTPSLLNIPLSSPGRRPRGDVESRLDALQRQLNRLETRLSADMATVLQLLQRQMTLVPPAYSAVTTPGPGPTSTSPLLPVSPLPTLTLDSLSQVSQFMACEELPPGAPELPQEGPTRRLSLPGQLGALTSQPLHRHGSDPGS
row,Structure (SMILES),"hERG current change (%, negative = inhibition) at 1uM"
1,O=C(CN(Cc1cccs1)C(=O)CNS(=O)(=O)c1ccc(F)cc1)NCc1ccco1,1.86%
2,O=C(CSc1cccc(C(F)(F)F)c1)NC(=O)NCc1ccco1,8%
3,CC(C)CCNC(=O)C1CCN(S(=O)(=O)c2ccc3nc4c(c(C(=O)O)c3c2)CCCCC4)CC1,29.8%
4,COCCn1nnnc1CN1CCC(O)(c2cccc(C(F)(F)F)c2)CC1.Cl,10.4%
5,CC(Nc1nc(N2CCN(S(C)(=O)=O)CC2)nc2ccccc12)c1ccccc1 (centres unmarked),-14%
6,CC1CCN(C(C)C(=O)Nc2ccc(S(=O)(=O)N3CCCC3)cc2)CC1 (centres unmarked),2.91%
7,CCOC(=O)N1CCC(NC(=O)CSCc2nc(-c3ccc(OC)cc3)oc2C)CC1,5.34%
8,Cc1ccc(-c2csc(NC(=O)CCNC(=O)c3ccccc3Cl)n2)cc1,13.6%
9,CC1CCCN(CC(=O)NC(=O)NC2CCCCC2)C1 (centres unmarked),9.06%
10,CC(=O)Nc1ccc(NS(=O)(=O)c2ccc(Cl)s2)cc1,-4.63%
11,CCCCCCC(=O)Nc1nc(C)c(-c2csc(Nc3cc(Cl)ccc3C)n2)s1,9.86%
12,O=S(=O)(c1cc(Cl)ccc1Cl)N1CC2CCCN2c2ccc(C(F)(F)F)cc21 (centres unmarked),-5.66%
13,Cn1c(=O)c2c(nc(SCC(=O)NCC3CCCO3)n2C)n(C)c1=O (centres unmarked),4.86%
14,N#CC(C#N)=C1NC2(CCCC2)Cc2ccccc21,6.74%
15,Cc1cc(C)nc(NC(=O)c2cc(Br)ccc2Cl)n1,13.8%
16,COc1ccccc1S(=O)(=O)Cc1ccc(C(=O)NC2CCCCCC2)o1,8.53%
17,CC(CCc1ccccc1)NC(=O)CCCn1ncn2c(cc3occc32)c1=O (centres unmarked),-4.2%
18,O=C(CCOc1ccccc1)Nc1ccccc1F,15.6%
19,CC1CC(C)CN(CCCNC(=O)c2ccc(CNS(=O)(=O)c3ccc(F)cc3)cc2)C1 (centres unmarked),6.27%
20,CN(c1ccc(C(=O)Nc2ccc(CC#N)cc2)cc1)S(C)(=O)=O,16.1%
21,O=C(Cn1c(-c2ccco2)nc2ccccc21)N1CCCCC1,-2.25%
22,COc1cccc(C2C=C(Nc3ccccc3)C(=O)N2c2ccccc2)c1 (centres unmarked),0.332%

row,Structure (SMILES),"hERG current change (%, negative = inhibition) at 1uM"
1,COc1cc(/C=C(\C#N)C(=O)NCC2CCCO2)ccc1OCCC(C)C (centres unmarked),9.62%
2,O=C(Nc1cccc(F)c1)C1CCN(C(=O)c2ccccc2Cl)CC1,2.46%
3,Cc1cccc(-c2nc(CN3CCN(C(=O)C4CCCO4)CC3)cs2)c1 (centres unmarked),9.39%
4,CCN(C(=O)c1cc(S(=O)(=O)N2CCc3ccccc32)cn1C)c1ccccc1,3.92%
5,CN(C)CCCN1c2ccccc2Sc2ccc(Cl)cc21.Cl,5.56%
6,CCN(Cc1ccc2c(c1)OCO2)C(=O)CSc1ncnc2sccc12,9.42%
7,Cc1[nH]n(-c2ccccc2)c(=S)c1C=NCCCN=Cc1c(C)[nH]n(-c2ccccc2)c1=S,13%
8,O=C(Nc1ccccc1N1CCN(c2ccccc2)CC1)c1ccccc1F,9.62%
9,C=CCOc1ccc(C(c2c(C)n(C)n(-c3ccccc3)c2=O)c2c(C)n(C)n(-c3ccccc3)c2=O)cc1,14.2%
10,CSCCC(NS(=O)(=O)c1ccccc1)C(=O)OCc1cc(=O)oc2cc(O)ccc12 (centres unmarked),-18.6%
11,CC(C)CNC(=O)COc1ccc(Sc2ccc(OCC(=O)NCC(C)C)cc2)cc1,0.848%
12,COCCNC(=O)c1ccccc1NC(=O)CCSc1ccccc1,10.7%
13,CCCN1CCC(=O)N(CCN=[N+]=[N-])CC1,9.31%
14,CC(C)c1[nH]nc2c1C(C(C)C)C(C#N)=C(N)O2 (centres unmarked),3.8%
15,Cc1ccc(F)cc1NC(=O)COC(=O)COc1ccc(C#N)cc1,-5.37%
16,C=CCN(CC=C)CCOc1cc(C)ccc1[N+](=O)[O-].O=C(O)C(=O)O,6.69%
17,O=C(CN1CCN(Cc2ccccc2)CC1)Nc1ccc(S(=O)(=O)N2CCOCC2)cc1,12.1%
18,COc1ccc(C(CC(=O)Nc2ccc(F)cc2)c2ccccc2)cc1 (centres unmarked),9.31%
19,COc1ccc(CN2CCN(c3ccccn3)CC2)c(OC)c1C.O=C(O)C(=O)O,5.42%
20,C=CCn1c(Cc2csc(N)n2)nnc1SCC(=O)Nc1ccccc1C(F)(F)F,5.66%
21,CCOC(=O)c1ccccc1NC(=O)COc1cc(=O)n(CC)c2ccccc12,7.24%
22,COc1cccc(N2CCN(S(=O)(=O)c3cc4c(cc3Cl)NC(=O)CO4)CC2)c1,10.1%
